# Hit rate of the full screen: of about 39,000 compounds, about 220 (0.56%) showed activity. Some of the results follow.
# Tested on: Escherichia coli K-12 BW25113
# Assay: relative growth (OD600 normalised to plate interquartile mean) (fraction); higher = less growth inhibition, active = 0.2 or less
# Details: 50 µM; LB; incubation time: overnight (16-24 h)
# 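Further: static incubation at 37 °C against the wild-type strain, values averaged over two biological replicates.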
row,SMILES,relative growth
1,C[C@]1(O)CC[C@@H]2C(C(=O)O)=CO[C@@H](O[C@@H]3O[C@H](COC(=O)/C=C/c4ccc(O)c(O)c4)[C@@H](O)[C@H](O)[C@H]3O)[C@@H]21,inactive: 1.02
2,C=CCN1C(=O)[C@]2(O[C@H](CCO)[C@@H]([Si](C)(C)c3ccc(OC)cc3)[C@@H]2C)c2cc(N3C(=O)c4cccc5cccc3c45)ccc21,inactive: 1.03
3,C[C@@H]1CN([C@@H](C)CO)C(=O)c2cccc(NC(=O)C3CCOCC3)c2O[C@H]1CN(C)S(=O)(=O)c1cn(C)cn1,inactive: 1.01
4,C=CCOC(=O)[C@H]1[C@@H]2C(=O)O[C@@H](c3ccccc3)[C@@H](c3ccccc3)N2[C@@H](c2ccc(OCCOC(=O)[C@H]3C[C@H]4C(=O)N5CCC[C@H]5C(=O)N4[C@H]3c3cccc(OCCO)c3)cc2)[C@]12C(=O)Nc1ccc(I)cc12,inactive: 1.01
5,C[C@H](CO)N1C[C@H](C)[C@@H](CN(C)S(C)(=O)=O)Oc2ncc(C#CC3(O)CCCC3)cc2C1=O,inactive: 1
6,C[C@@H]1CN([C@@H](C)CO)C(=O)c2c(c3ccccc3n2C)-c2ccccc2CO[C@@H]1CN(C)C(=O)Nc1cccc(C(F)(F)F)c1,inactive: 1.03
7,O=C(C[C@H]1C=C[C@H](NC(=O)Cc2ccccn2)[C@H](CO)O1)NCCCN1CCOCC1,inactive: 0.998
8,O=C(C[C@@H]1C[C@@H]2c3cc(NS(=O)(=O)c4ccccc4)ccc3O[C@@H]2[C@H](CO)O1)NCC(F)(F)F,inactive: 0.976
9,CC(C)(C)NCC(O)c1ccc(O)c(CO)c1 (configuration not stated),inactive: 0.903
10,Cl.N=C(NN=Cc1ccc(Cl)cc1)NN=Cc1ccc(Cl)cc1,inactive: 0.609
11,C[C@H]1CN([C@@H](C)CO)C(=O)c2cc(NC(=O)CCCCCC(=O)Nc3ccccc3N)ccc2O[C@@H]1CN(C)C(=O)Nc1ccc(F)cc1,inactive: 0.965
12,C[C@@H]1CN([C@H](C)CO)C(=O)c2cccc(NC(=O)Nc3ccc(C(F)(F)F)cc3)c2O[C@@H]1CN(C)C(=O)NC1CCCCC1,inactive: 0.886
13,CC(C)C#Cc1ccc2c(c1)O[C@@H](CN(C)S(=O)(=O)c1cn(C)cn1)[C@H](C)CN([C@H](C)CO)S2(=O)=O,inactive: 1.01
14,CN(C)CCN1CCNCC1,inactive: 0.961
15,C[C@@H]1CN([C@@H](C)CO)C(=O)c2cc(NS(=O)(=O)c3ccc(Cl)cc3)ccc2O[C@@H](C)CCCCO[C@@H]1CN(C)C(=O)Cc1ccccc1,inactive: 1.01
16,C[C@H]1CCCCO[C@H](CN(C)Cc2ccc3c(c2)OCO3)[C@@H](C)CN([C@@H](C)CO)C(=O)c2cc(NC(=O)Cc3ccccc3)ccc2O1,inactive: 0.98
17,COc1ccc(NC(=O)N(C)C[C@@H]2Oc3c(NC(=O)Nc4ccc(C(F)(F)F)cc4)cccc3C(=O)N([C@@H](C)CO)C[C@@H]2C)cc1,inactive: 0.883
18,Cn1nnc2cc(C(=O)NC3CC3)ccc21,inactive: 1.01
19,CO[C@@H]1CN(C)C(=O)c2cc(NC(=O)Nc3cccc(F)c3)ccc2OC[C@H](C)N(C(=O)Nc2c(C)noc2C)C[C@H]1C,inactive: 1

row,SMILES,relative growth
1,C[C@@H]1CN([C@@H](C)CO)C(=O)Cc2cc(NS(=O)(=O)c3ccc(F)cc3)ccc2O[C@H]1CN(C)CC1CC1,inactive: 1.01
2,C[C@H](CO)N1C[C@H](C)[C@H](CN(C)Cc2ccc(C(=O)Nc3ccccc3N)cc2)Oc2ccc(NC(=O)Nc3cccc4ccccc34)cc2CC1=O,inactive: 1.02
3,C[C@H](CO)N1C[C@H](C)[C@H](CN(C)CC2CCCCC2)Oc2ccc(NC(=O)CCN3CCOCC3)cc2CC1=O,inactive: 0.995
4,Cc1noc(C)c1NC(=O)N1C[C@H](O)COC[C@@H]2O[C@H](CC(=O)N[C@H]3CCN(Cc4ccccc4)C3)CC[C@H]21,inactive: 1.01
5,C[C@@H](CO)N1C(=O)[C@@H]2[C@H]3C(=O)OCC=C[C@H]3O[C@]23C=CCN(C(C)(C)C)C(=O)[C@@H]13,inactive: 1.04
6,C[C@H]1CCCCO[C@H](CN(C)S(=O)(=O)c2ccc(Cl)cc2)[C@@H](C)CN([C@@H](C)CO)C(=O)c2cc(NC(=O)Nc3ccc4c(c3)OCO4)ccc2O1,inactive: 1.06
7,CN(C)CC#Cc1ccc([C@@H]2[C@@H](CO)N3C(=O)CN(C(=O)c4cccnc4)C[C@H]23)cc1,inactive: 0.984
8,C[C@H](O)C#Cc1ccc2c(c1)O[C@H](CN(C)C(=O)c1ccncc1)[C@@H](C)CN([C@@H](C)CO)S2(=O)=O,inactive: 1
9,C[C@@H]1CN([C@@H](C)CO)C(=O)c2cc(NC(=O)Nc3ccccc3)ccc2O[C@@H](C)CCCCO[C@H]1CN(C)S(=O)(=O)c1ccc(C(F)(F)F)cc1,inactive: 1.01
10,COc1ccc(NC(=O)N(C)C[C@@H]2Oc3c(NC(=O)C4CCOCC4)cccc3C(=O)N([C@H](C)CO)C[C@@H]2C)cc1,inactive: 0.983
11,CCCCCC=CCC=CCC=CCC=CCCCC(=O)O,inactive: 0.966
12,C[C@@H]1CCCCO[C@H](CN(C)C(=O)c2ccccc2)[C@@H](C)CN([C@@H](C)CO)C(=O)c2cc(NC(=O)Nc3cccc4ccccc34)ccc2O1,inactive: 1.04
13,C[C@H](CO)N1C[C@H](C)[C@H](CN(C)Cc2ccc(-c3ccccc3)cc2)Oc2ccc(NC(=O)Cc3cn(C)c4ccccc34)cc2C1=O,inactive: 1.01
14,COCC(=O)Nc1ccc2c(c1)C(=O)N(C)[C@H]1CC[C@H](CC(=O)NCc3ccccc3Cl)O[C@@H]1CO2,inactive: 0.997
15,C[C@H]1CN([C@@H](C)CO)C(=O)Cc2cc(NC(=O)Nc3ccccc3)ccc2O[C@H]1CN(C)S(C)(=O)=O,inactive: 1.01
16,CC(C)C[C@H]1NC(=O)N(C)C1=O,inactive: 1
17,C[C@H](CO)N1C[C@H](C)[C@@H](CN(C)Cc2ccc(C(F)(F)F)cc2)OCCCC[C@H](C)Oc2ccc(NC(=O)CCCN(C)C)cc2C1=O,inactive: 0.937
18,C[C@@H]1CN([C@H](C)CO)C(=O)c2cccc(NS(=O)(=O)c3cccs3)c2O[C@H]1CN(C)Cc1ccc(Oc2ccccc2)cc1,inactive: 1.03

# Reference: the supplement of paper PMC9446081
